The structures appear in SMILES notation. Out of some 310,000 compounds screened, about 2,200 (0.71%) showed an effect of 50% or more. Effects have a minus sign here. Some of the results follow.

These results are taken from publication PMC4336329 (PLoS ONE, 2015).

For the test, the target named is human ether-à-go-go-related gene (hERG) potassium channel (human, UniProt Q12809). Kind of test: primary screen, population patch clamp on CHO cells stably expressing hERG.
Sequence of human ether-à-go-go-related gene (hERG) potassium channel (Q12809 whole entry, looked up): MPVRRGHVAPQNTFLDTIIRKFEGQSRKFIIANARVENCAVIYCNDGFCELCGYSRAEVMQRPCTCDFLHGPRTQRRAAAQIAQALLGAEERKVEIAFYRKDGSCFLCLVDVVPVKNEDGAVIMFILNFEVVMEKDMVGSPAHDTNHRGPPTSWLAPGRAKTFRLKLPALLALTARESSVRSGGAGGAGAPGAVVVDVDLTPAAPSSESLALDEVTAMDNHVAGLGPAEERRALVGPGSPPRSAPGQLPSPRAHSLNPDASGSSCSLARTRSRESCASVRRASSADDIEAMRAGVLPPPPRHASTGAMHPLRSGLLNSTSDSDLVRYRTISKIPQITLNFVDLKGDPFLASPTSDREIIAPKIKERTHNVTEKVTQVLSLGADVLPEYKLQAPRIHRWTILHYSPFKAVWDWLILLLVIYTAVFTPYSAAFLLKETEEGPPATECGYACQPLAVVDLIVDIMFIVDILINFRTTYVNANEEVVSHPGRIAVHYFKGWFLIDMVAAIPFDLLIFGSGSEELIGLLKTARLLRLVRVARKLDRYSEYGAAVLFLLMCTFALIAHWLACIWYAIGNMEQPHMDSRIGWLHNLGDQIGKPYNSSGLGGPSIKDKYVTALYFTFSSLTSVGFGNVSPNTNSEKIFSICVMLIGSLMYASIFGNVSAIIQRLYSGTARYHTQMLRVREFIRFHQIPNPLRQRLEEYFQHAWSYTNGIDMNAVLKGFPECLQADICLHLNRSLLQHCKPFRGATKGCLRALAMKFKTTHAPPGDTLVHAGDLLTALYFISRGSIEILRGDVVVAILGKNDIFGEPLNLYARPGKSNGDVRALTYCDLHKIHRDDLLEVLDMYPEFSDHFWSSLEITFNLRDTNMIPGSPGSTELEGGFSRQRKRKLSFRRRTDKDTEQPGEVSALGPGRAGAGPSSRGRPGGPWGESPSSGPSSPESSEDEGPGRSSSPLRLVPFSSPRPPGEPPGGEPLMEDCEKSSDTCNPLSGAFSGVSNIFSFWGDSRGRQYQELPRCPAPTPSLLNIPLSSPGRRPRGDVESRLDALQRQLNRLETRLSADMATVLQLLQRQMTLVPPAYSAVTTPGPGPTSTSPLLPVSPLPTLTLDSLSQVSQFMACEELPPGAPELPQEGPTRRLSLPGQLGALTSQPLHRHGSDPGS
`CC(C)(Cc1ccc(O)cc1)NC(=O)CC(=O)N/N=C/c1ccc(Cl)cc1`: the “hERG current change (%, negative = inhibition) at 1uM” value amounted to 13.4%.
In the case of `O=c1[nH]c2ccccc2nc1N1CCOCC1`, the “hERG current change (%, negative = inhibition) at 1uM” value is recorded as -6.49%.
Regarding `C=CCn1c(N)cc(=O)nc1SCC(=O)Nc1ccccc1C(N)=O`, the “hERG current change (%, negative = inhibition) at 1uM” value worked out at 12.4%.
The value for `CCN(CC)CCn1c(SCC(=O)Nc2ccc(F)cc2)nc2c(sc3ccccc32)c1=O.Cl` was 4.95%; that for `O=C1NC(c2cccc(Br)c2)=N/C1=C\c1ccco1` was 0.597%; that for `COCCNC(=S)N/N=C/c1ccc(OCc2ccc(C(=O)OC)cc2)cc1` was 8.3%.
In the case of `COc1ccc(CC(=O)NC2CC(C)(C)NC(C)(C)C2)cc1OC.Cl`, the “hERG current change (%, negative = inhibition) at 1uM” value was found to be 12%.
For the compound `CC1CN(S(=O)(=O)c2ccc(F)cc2)CN1C(=O)N1CCOCC1` (stereo not drawn), the “hERG current change (%, negative = inhibition) at 1uM” value is recorded as 13.8%.
Regarding `Cc1cc(C)cc(NC(=O)C2C3C=CC4(O3)C2C(=O)N(CCCN2CCCC2)C4C(=O)NC2CCCC(C)C2C)c1` (stereo not drawn), the “hERG current change (%, negative = inhibition) at 1uM” value came to 8.74%.
The figure for `CCc1nc(N2CCCCC2C)c2oc3ccccc3c2n1.Cl` (stereo not drawn) is 20.9%.
With `CCC(CC)NC(=O)c1cc(S(=O)(=O)N2CCCCC2)ccc1N1CCOCC1`, the “hERG current change (%, negative = inhibition) at 1uM” value was -6.91%.
For the compound `CC(C(=O)O)c1ccc(C(=O)c2cccs2)cc1` (stereo not drawn), the “hERG current change (%, negative = inhibition) at 1uM” value turned out to be 1.86%.
In the case of `COc1cccc(C(=O)NC(=S)Nc2ccc3[nH]c(=O)[nH]c3c2)c1`, the “hERG current change (%, negative = inhibition) at 1uM” value is -23.7%.
For the compound `CC(O)[C@H]1CNC(=O)C(=O)N1CC1(c2ccccc2)CC1` (stereo partly drawn), the “hERG current change (%, negative = inhibition) at 1uM” value is 17.3%.
For `Clc1ccc(-c2c[n+]3c(n2-c2ccccc2)SCC3)cc1.[Cl-]`, the “hERG current change (%, negative = inhibition) at 1uM” value is recorded as 3.68%.
The figure for `CC1=CC(C)(C)N2C(=O)C3(C(C#N)=C(N)OC4=C3C(=O)CCC4)c3c(C)c(C)cc1c32` (stereo not drawn) is 9.76%; for `CCOc1ccc(N2C(=O)/C(=C\c3cccs3)C(=O)NC2=S)cc1` it is 16.5%.
In the case of `COC(=O)c1ccccc1NC(=O)CSc1nc(C)cc(C)n1`, the “hERG current change (%, negative = inhibition) at 1uM” value is on record as 10.5%.
Turning to `COc1cc2c(cc1NC(=S)NC(=O)/C=C/c1ccco1)oc1ccccc12`, the “hERG current change (%, negative = inhibition) at 1uM” value was found to be 8.27%.
For `Cc1ccc(C(C(=O)NC2CCCC2)N(Cc2ccc(F)cc2)C(=O)c2snc(C(N)=O)c2N)o1` (stereo not drawn), the “hERG current change (%, negative = inhibition) at 1uM” value is given as 5.56%.
With `O=C(COC(=O)c1ccc(Br)o1)NC1CCCCC1`, the “hERG current change (%, negative = inhibition) at 1uM” value came to 9.21%.
Consider `COc1ccc(/C(C)=N/NC(=O)C2CC2)cc1`, for which the “hERG current change (%, negative = inhibition) at 1uM” value is recorded as -9.18%.
The figure for `Cc1c(NS(=O)(=O)c2ccc3nc(COc4ccccc4Cl)[nH]c3c2)c(=O)n(-c2ccccc2)n1C` is 17%.
Turning to `O=C(NCC(c1ccco1)N1CCc2ccccc21)C(=O)Nc1ccccc1` (stereo not drawn), the “hERG current change (%, negative = inhibition) at 1uM” value was determined as 7.36%.
Take `O=C(CSc1nc(-c2ccccc2)c(-c2ccccc2)[nH]1)Nc1ccc2c(c1)OCO2`: the “hERG current change (%, negative = inhibition) at 1uM” value came out at 9.89%.
The figure for `CCOc1ccc(NC(=O)Cn2nnc(-c3ccccc3F)n2)cc1` is 3.62%; for `O=C(c1cccs1)c1cn(Cc2ccccc2Cl)c2ccccc12` it is 18.1%; for `COc1ccc(Br)c(C(=O)Nc2cccc(Cl)c2Cl)c1` it is 6.46%.
For `CCN1C(=O)[C@H]2[C@@H](c3ccc(-c4ccc(Cl)c(Cl)c4)cc3)N[C@@](Cc3ccccc3)(C(=O)OC)[C@H]2C1=O.O=C(O)C(F)(F)F`, the “hERG current change (%, negative = inhibition) at 1uM” value is 7.01%.
Turning to `CC(=O)c1c(C)[nH]c(C(=O)OC(C)C(=O)Nc2ccc(C)c(S(=O)(=O)N3CCOCC3)c2)c1C` (stereo not drawn), the “hERG current change (%, negative = inhibition) at 1uM” value was 14.7%.
For the compound `CCc1sc(NC(=O)CN2CCC(C(N)=O)CC2)nc1-c1ccccc1`, the “hERG current change (%, negative = inhibition) at 1uM” value is recorded as 12.4%.
Consider `Clc1ccc2c(c1)CNc1c(ncnc1N1CCOCC1)O2`, for which the “hERG current change (%, negative = inhibition) at 1uM” value is on record as 5.3%.
`O=C(COC(=O)Cc1n[nH]c(=O)c2ccccc12)Nc1ncc(Cl)cc1Cl`: the “hERG current change (%, negative = inhibition) at 1uM” value was 4.58%.
For the compound `CCN(CC)CCn1nc2c3c(cccc3c1=O)-c1ccccc1-2`, the “hERG current change (%, negative = inhibition) at 1uM” value is recorded as -50%.
On to `CC(=O)N(CCCN(C)C)Cc1ccccn1`, for which the “hERG current change (%, negative = inhibition) at 1uM” value was determined as 15.6%.
The value for `CC(=O)Nc1ccc(S(=O)(=O)N2CCN(CC3CC4C=CC3C4)CC2)cc1.O=C(O)C(=O)O` (stereo not drawn) was 12.9%; that for `CC1CCC(C(C)C)C(OC(=O)COC(=O)c2ccccc2N)C1` (stereo not drawn) was 4.58%.
With `CCOC(=O)C1CCN(S(=O)(=O)CCNC(=O)c2ccccc2)CC1`, the “hERG current change (%, negative = inhibition) at 1uM” value was found to be 6.46%.
With `CCOC(=O)c1c(NC(=O)c2ccc(C)cc2)sc2c1CC(C)(C)NC2(C)C`, the “hERG current change (%, negative = inhibition) at 1uM” value was determined as 7.88%.
Turning to `COc1ccccc1NC(=O)c1c(Nc2ccccc2C)sc(C(=O)Nc2cccc(Cl)c2)c1N`, the “hERG current change (%, negative = inhibition) at 1uM” value is recorded as 13.3%.
For `Cc1cc(NC(=O)c2cn(C3CCCCC3)c(=O)c3c2c2ccccc2n3C)no1`, the “hERG current change (%, negative = inhibition) at 1uM” value is on record as 11.9%.
The figure for `O=C(CC1COc2ccccc2O1)Nc1ccccn1` (stereo not drawn) is 7.73%.
For the compound `Cc1ccc(-n2nnnc2Sc2ccc(S(=O)(=O)NCCN(C)C)cc2[N+](=O)[O-])cc1`, the “hERG current change (%, negative = inhibition) at 1uM” value was 4.31%.
Consider `N#Cc1cnc2cc(-c3ccccc3)nn2c1N`, for which the “hERG current change (%, negative = inhibition) at 1uM” value is 8.75%.
As to `CCCN(C(=O)CCl)C1=CCCCC1`, the “hERG current change (%, negative = inhibition) at 1uM” value is 26.6%.
Turning to `CC(C(=O)N=c1sc2ccccc2n1C)N1C(=O)C2CC=CCC2C1=O` (stereo not drawn), the “hERG current change (%, negative = inhibition) at 1uM” value is given as -23.9%.
Consider `O=C(c1ccccc1)c1cn(CC(=O)N2CCCC2)c2ccccc12`, for which the “hERG current change (%, negative = inhibition) at 1uM” value is given as -5.76%.
As for `COCc1nnc(NC(=O)CCCCCN2C(=O)c3ccccc3C2=O)s1`, the “hERG current change (%, negative = inhibition) at 1uM” value is listed as 7.19%.
For `O=C(CSc1nc(-c2ccccc2)nn1C(=O)c1ccccc1)Nc1cccc([N+](=O)[O-])c1`, the “hERG current change (%, negative = inhibition) at 1uM” value was found to be 8.2%.
`COc1ccc(NC2CCCN(C(=O)COc3ccc(C)cc3)C2)cc1` (stereo not drawn): the “hERG current change (%, negative = inhibition) at 1uM” value is listed as 1.09%.
In the case of `COc1ccc(NC(=O)CSc2nnc3ccc(-c4ccccn4)nn23)cc1OC`, the “hERG current change (%, negative = inhibition) at 1uM” value is reported as 13.8%.
As to `O=C1C(Cc2cnc[nH]2)NC(=S)N1c1ccccc1` (stereo not drawn), the “hERG current change (%, negative = inhibition) at 1uM” value was 6.46%.
On to `Cc1ccc2c(c1)-c1c(ssc1=S)C(C)(C)N2C(=O)CSc1nncn1C`, for which the “hERG current change (%, negative = inhibition) at 1uM” value is -16.3%.
Regarding `O=[N+]([O-])c1ccc(Cl)c(/C=N/n2c(-c3ccncc3)n[nH]c2=S)c1`, the “hERG current change (%, negative = inhibition) at 1uM” value stood at 10.8%.
